# Experimental data: PubChem BioAssay AID686978 (National Center for Advancing Translational Sciences (NCATS), 2013)
# The whole screen tested about 420,000 compounds, of which about 64,000 (15%) were called active. The inconclusive results got no clear call from the source; some entries with a clear call stand among them for comparison. The call rests on the fitted dose curve; in most records, active means well fitted inhibition curve with a large enough effect; inconclusive means small, poorly fitted or top-dose-only effect; inactive means flat fitted curve, though single readings scatter. No potency is given beside an inconclusive call; the fits are too rough.
# Experiment: qHTS for Inhibitors of human tyrosyl-DNA phosphodiesterase 1 (TDP1): qHTS in cells in absence of CPT; further: nearly all actives have a fitted effect of over 55% in size
# Conditions: DT40 Tdp1-/- hTDP1 cells, no CPT, ATP luminescence, 48 h; activity change, negative = growth inhibition: at 46.2 µM (top of the series) unless noted
# Summary of the method: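 DT40 Tdp1-/-;hTDP1 cells, no CPT (DMSO vehicle only), 400 cells/well; compounds pin-transferred; ≥48 hr, 37 °C; CellTiter-Glo 30 min RT dark, luminescence read.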
# On the % scale 0 is the no-effect control and ±100 the full control effect; potency means the concentration at half of the fitted maximal effect; tags describe the fitted curve by direction and shape.
SMILES,"activity change, negative = growth inhibition",Potency
O=CNNC(=O)c1cccc([N+](=O)[O-])c1,inactive: 14.7%,
O=C(CSCc1c(Cl)cccc1Cl)NCc1ccco1,,"inconclusive [inhibitor, partial curve]"
Cc1cccc(C)c1NC(=O)C(c1ccc(-c2ccccc2)cc1)n1c(=O)c(-c2ccco2)nc2ccccc21 (stereo unspecified),,"inconclusive [inhibitor, single point]"
COc1ccccc1NC(=O)c1c(N=Cc2c(O)ccc3ccccc23)cnn1C,,active: 6.51 µM
NCCC(=O)N1c2ccccc2Sc2ccccc21,,"inconclusive [inhibitor, single point]"
COc1ccc(Br)cc1CN(C)CC(O)COc1ccc(Br)cc1 (stereo unspecified),,"inconclusive [inhibitor, partial curve]"
CC(C)[C@H](NC(=O)N1c2ccccc2NC(=O)[C@@H]1C(C)C)C(=O)N1CCC(C(=O)O)CC1,inactive: 13.8%,
Cc1nc2c(sc(=S)n2Cc2ccco2)c(=O)n1CC(=O)Nc1ccccc1F,,"inconclusive [inhibitor, single point]"
Cc1ccc(Cn2c(CNC(=O)c3cccc(C)c3)nc3ccccc32)cc1,,"inconclusive [inhibitor, single point]"
COc1ccccc1N(Cc1ccccc1)S(=O)(=O)c1cccc(C(=O)Nc2ccc(C)cn2)c1,,"inconclusive [inhibitor, single point]"
O=C1CC(=O)Nc2cc(S(=O)(=O)NCc3cccs3)ccc2N1,inactive: 10.2%,
CCc1ccc2nc(N3CCN(C(=O)C4CC4)CC3)sc2c1,,"inconclusive [inhibitor, partial curve]"
CCN(CC)c1ccc(/C=N/NC(=O)c2ccc3nc[nH]c3c2)c(O)c1,,"inconclusive [inhibitor, single point]"
C/C(=N\O)C(C)NC(=O)c1ccccc1 (stereo unspecified),inactive: -3.31%,
Cc1cccc(CN2CCN(C(=O)CCc3nnc(C4CCCCC4)o3)CC2)c1,,"inconclusive [inhibitor, partial curve]"
Cn1cnc2ncnc(Oc3ccc(Br)cc3)c21,,"inconclusive [inhibitor, partial curve]"
CN(C)CCCN(Cc1ccccc1)C(=S)NCc1ccccc1,,"inconclusive [inhibitor, partial curve]"
Cc1ccc(S/C(=N\S(=O)(=O)c2ccc(Cl)cc2)c2ccccc2)cc1,,active: 10.3 µM
CCOc1ccccc1NC(=O)Cn1c2ncccc2c(=O)n1-c1ccc(C)c(C)c1,,"inconclusive [inhibitor, single point]"
CC(=O)NCCC(=O)N1CCCC(N2CCN(c3cccc(Cl)c3)CC2)C1 (stereo unspecified),inactive: 0.195%,
COCCCNC(=O)C[C@H]1C[C@H](C(=O)N2CCCCC2)[C@@]2(C)c3[nH]c4cc(-c5ccco5)ccc4c3CCN2C1=O,,"inconclusive [inhibitor, single point]"
Cc1cc(OC(=O)c2ccc(S(=O)(=O)N(C)C)cc2)c([N+](=O)[O-])c(=O)[nH]1,inactive: 16.4%,
C[C@@H]1CN([C@@H](C)CO)C(=O)CCCn2nncc2CO[C@H]1CN(C)C(=O)OCc1ccccc1,inactive: -12.3%,

SMILES,"activity change, negative = growth inhibition",Potency
O=C(NCc1cccc(C(F)(F)F)c1)C1CCC(=O)N(C2CCCCCC2)C1 (stereo unspecified),,"inconclusive [inhibitor, partial curve, poor fit]"
O=C(NC1CCCC1)C1CCN(C(=O)c2ccc(-c3ccccc3)cc2)CC1,,"inconclusive [inhibitor, single point]"
Cc1ccc(S(=O)(=O)N2CCN(CC(O)COc3ccccc3)CC2)cc1 (stereo unspecified),inactive: -16%,
COCCNC(=O)CN(C(=O)c1ccc(N2CCCC2)nc1)c1ccccc1,inactive: 5.89%,
COc1ccc(C)cc1NC(=O)CSc1nc(=O)n(Cc2ccccn2)c2c1CCC2,,active: 20.6 µM
Cc1oc(-c2ccc(C(=O)Nc3ccccc3F)cc2)nc1COc1ccccc1,,"inconclusive [inhibitor, full curve, poor fit]"
Fc1ccc(Cn2c(SCc3ccc(F)c(F)c3)nnc2C(F)(F)F)cc1,,"inconclusive [inhibitor, single point]"
O=C(O)[C@H]1CCCC[C@H]1C(=O)Nc1ccc(Nc2ccccc2)cc1,,"inconclusive [inhibitor, single point]"
CC(C)COP(=O)(OCC(C)C)C(O)c1ccc(N(C)C)cc1 (stereo unspecified),,"inconclusive [inhibitor, single point]"
O=C(Nc1nnc(C23CC4CC(CC(C4)C2)C3)s1)c1ccco1,inactive: 2.47%,
Fc1ccc(F)c(C2=NNC(=Nc3ccccc3F)SC2)c1,,active: 16.4 µM
O=C(Cc1n[nH]c(=O)c2ccccc12)N1CCN(c2ccc(F)cc2)CC1,,"inconclusive [inhibitor, single point]"
Cc1cccc(C)c1NC(=O)CN1C(=O)c2cccc3cccc1c23,inactive: -13%,
COc1ccc(C2C(=O)N(C3CCC(C)CC3)CC(=O)N2CCC2=CCCCC2)cc1OC (stereo unspecified),,active: 23.1 µM
CCOc1ccc(NC(=O)CN2C(=O)C3(SCC(=O)N3c3ccc(F)cc3)c3ccccc32)cc1 (stereo unspecified),,"inconclusive [inhibitor, single point]"
CC(C)OC(=O)n1c(=S)oc2ccccc21,,"inconclusive [inhibitor, single point]"
O=C(/C=C/c1ccccc1[N+](=O)[O-])Nc1cccc(S(=O)(=O)NC2=NCCCCC2)c1,,active: 20.6 µM
CC(=O)N1CCCc2cc(S(=O)(=O)Nc3ccc(C)c(F)c3)ccc21,,active: 16.4 µM
Cn1c(=O)c2sccc2n(Cc2cccc(Br)c2)c1=O,,"inconclusive [inhibitor, single point]"
COCCNC(=O)C(c1cccs1)N(C(=O)Cn1nnc2ccccc21)c1ccccc1 (stereo unspecified),inactive: -8.95%,
O=C(Cc1ccc([N+](=O)[O-])cc1)N/N=C/c1ccc([N+](=O)[O-])o1,,active: 9.2 µM
Cc1cc(NS(=O)(=O)c2ccc(NC(=O)CCCOc3ccccc3)cc2)no1,inactive: -2.19%,
CCc1cccc(OCC(=O)Nc2ccccc2N2CCCC2)c1,,"inconclusive [inhibitor, single point]"
